The full ranking holds about 110,000 compounds; the median of “z-score” is about -0.1, and the highest 2% start at about 2. This is one part of the list. The source made the active and inactive calls.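 The calls were made as follows: active = z-score in the third read window above 3 or below -3; inactive = the rest.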

The assay addresses Metabotropic glutamate receptor 8 (Rattus norvegicus) (UniProt P70579). Kind of assay: mGluR8 Gi/Go-coupled signaling modulation – cell-based, rat, thallium flux, HTS, primary screen (AID 488969). The note with it: HEK293 rat mGluR8, GIRK (G protein-gated inwardly rectifying potassium channel) thallium flux, FluoZin2; at 10 µM; stronger effect = higher value; submaximal glutamate (EC20) added with thallium.
Chain of UniProt P70579 (P70579 whole entry, looked up): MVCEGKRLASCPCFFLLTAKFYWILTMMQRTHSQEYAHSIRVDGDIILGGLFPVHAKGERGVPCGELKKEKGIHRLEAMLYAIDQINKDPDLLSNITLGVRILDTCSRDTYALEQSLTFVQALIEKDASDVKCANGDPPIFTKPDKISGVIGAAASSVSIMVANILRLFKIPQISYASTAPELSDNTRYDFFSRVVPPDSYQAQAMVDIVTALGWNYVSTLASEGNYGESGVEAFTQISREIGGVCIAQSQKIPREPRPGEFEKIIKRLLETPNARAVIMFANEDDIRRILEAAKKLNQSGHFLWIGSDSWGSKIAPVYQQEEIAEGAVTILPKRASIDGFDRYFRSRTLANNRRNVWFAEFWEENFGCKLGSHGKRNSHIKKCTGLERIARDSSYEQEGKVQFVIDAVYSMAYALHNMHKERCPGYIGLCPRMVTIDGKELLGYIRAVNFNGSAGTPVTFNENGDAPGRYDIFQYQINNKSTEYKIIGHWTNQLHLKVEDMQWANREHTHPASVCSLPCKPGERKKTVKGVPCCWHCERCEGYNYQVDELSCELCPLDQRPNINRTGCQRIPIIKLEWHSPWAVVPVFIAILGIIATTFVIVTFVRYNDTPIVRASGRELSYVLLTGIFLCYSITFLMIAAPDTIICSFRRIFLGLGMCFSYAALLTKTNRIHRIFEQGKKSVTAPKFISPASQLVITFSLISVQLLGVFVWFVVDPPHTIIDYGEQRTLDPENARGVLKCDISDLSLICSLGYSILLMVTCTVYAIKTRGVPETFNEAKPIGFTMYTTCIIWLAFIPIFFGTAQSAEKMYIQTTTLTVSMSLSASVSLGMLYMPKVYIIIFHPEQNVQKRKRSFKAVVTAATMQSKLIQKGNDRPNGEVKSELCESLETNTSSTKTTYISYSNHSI
Compound `CCC(=O)N1CCn2c1nc1ccccc12` gave a z-score of 0.17.

As to `Cc1ccn(CCSCC(=O)O)n1`, the z-score is 0.0165. The value for `Cn1c(=O)c2c(nc(N3CCNCC3)n2Cc2cccc3ccccc23)n(C)c1=O` was -1.19; that for `CC(=O)OC1c2ccccc2C(=O)N1Cc1ccccc1Cl` (stereo not given) was -0.295. The value for `O=C(Cn1c2ccccc2c(=O)c2ccccc21)Nc1ccccc1F` was -0.188; that for `Cc1[nH]n(-c2ccccc2)c(=O)c1/C=N/NC(=O)c1cccc([N+](=O)[O-])c1` was -0.376. Compound `Fc1ccc(C2CC(c3cccs3)=NN2C(=S)Nc2ccccc2)cc1` (stereo not given) came in with a z-score of -0.175. The value for `CCOCC(=O)N1CCCC(C(=O)OCC)C1` (stereo not given) was 0.539; that for `COCc1cc(=O)[nH]c(Nc2nc(C)c3ccccc3n2)n1` was -0.43; that for `O=C(Nc1ccccc1C(=O)N1CCOCC1)C1CCCO1` (stereo not given) was 1.1. The compound `N=c1c(C(=O)NCc2ccccc2)cc2c(=O)n3ccccc3nc2n1Cc1ccco1` came in with a z-score of 0.0142. The value for `O=C(Nc1ccc(F)cc1F)c1sccc1SCc1cccc(C(F)(F)F)c1` was -0.225. Take `CC(C)C1N=C2c3ccccc3N=C(SCC#N)N2C1=O` (stereo not given): the z-score was -0.449.

For the compound `CSc1nc(N(C)NC(=O)c2ccc(F)cc2)c2ccccc2n1`, the z-score was -0.000337. The value for `COc1ccc(CCNC(=O)CSc2nncn2N)cc1OC` was 0.392; that for `CCc1cccc(OCCOCCN2CCCC2)c1` was 0.338; that for `NC(=O)CCn1nc(-c2ccc(Cl)cc2)c2ccccc2c1=O` was -0.686. Then `N#Cc1c(Nc2ccccc2)sc(C(=O)C2CC2)c1N`, with -0.0602; and `CCOC(=O)c1c(NCC(C)C)c2ccccc2[nH]c1=O`, with -0.269; and `FC(F)(F)c1cccc(NC(=S)NCCN2CCOCC2)c1`, with 0.522. The value for `Cc1cc(C(=O)N2CCN(C(c3ccccc3)c3ccccc3)CC2)on1` was 0.377. As for `O=C1CCCCCC1C1(O)C(=O)Nc2ccccc21` (stereo not given), the z-score is -0.185.

`COc1cccc(-c2nc(=S)c3c(n2Cc2ccco2)CCCC3)c1` gave a z-score of 0.708. Then `Cc1oc(/C=N/NC(=O)CN(c2ccccc2Cl)S(C)(=O)=O)cc1Br`, with 0.329. Compound `N#Cc1c(C(F)(F)F)cc(-c2cccs2)nc1SCc1cccnc1` displayed a z-score of -0.248. `Cc1oc(-c2ccccc2Cl)[n+]([O-])c1C` came in with a z-score of -0.0205. `CCC1(O)CC(C(=O)OC)=NN1C(=O)c1ccccc1` (stereo not given): the z-score was 0.602. The value for `O=C(Nc1ccccc1C(=O)N/N=C/c1ccco1)c1ccccc1` was active: 3.37; that for `Cc1[nH]c2ccccc2c1Cc1nnc(SCc2ccccc2)o1` was 0.39; that for `O=C(Nc1ccc([N+](=O)[O-])cn1)c1cc(-c2cccc(Br)c2)nc2ccccc12` was 0.61. Regarding `CCSc1nnc(NC(=O)CC)s1`, the z-score is active: 5.27. The value for `COC(=O)c1[nH]c2ccccc2c1NC(=O)CCN1CCSCC1` was -0.0198. The value for `CCOc1c2ccc(C(=O)NCc3cc(C(F)(F)F)cc(C(F)(F)F)c3)cc2nn1C` was 0.112.

On to `Cc1noc(C)c1COc1cccc(C(=O)NCc2cccc(Cl)c2)c1`, for which the z-score was -0.712. The value for `O=C(CSc1nccc(=O)[nH]1)Nc1ccc(Br)c(Cl)c1` was -1.92; that for `Cc1cccc2c(CC(=O)O)noc12` was 0.0167. Then `O=C(OCC(F)(F)F)c1cccc(COc2ccc3ccccc3c2)c1`, with -0.207. The value for `Cc1ccc(-n2ncc3c(=O)n(CC#N)cnc32)cc1` was 0.402; that for `CCCCNC(=O)Nc1cc(C(=O)OC)ccc1Cl` was -0.138. In turn, `CN1C(=O)c2ccccc2C(C(=O)O)C1c1cccc(F)c1` (stereo not given) returned a z-score of -0.178. The compound `CNC(=S)NNC(=O)c1cccn(Cc2ccc(Cl)cc2Cl)c1=O` displayed a z-score of -0.0869. The value for `Cc1ccnn2c(-c3ccccc3)c3c(=O)n(C)c(=O)n(C)c3c12` was 0.00226; that for `Fc1cccc(CSc2ccc(-c3ccco3)nn2)c1` was -0.249; that for `CC(C)Sc1nc(-c2ccccc2)cc(=O)[nH]1` was -0.232.

`Cc1ccc2c(c1)NC(=O)C(CC(=O)NCCCN1CCc3ccccc3C1)O2` (stereo not given) had a z-score of -0.518. Then `CCc1ccc(C(=O)COC(=O)C(CCSC)NC(=O)C23CC4CC(CC(C4)C2)C3)cc1` (stereo not given), with -0.0604; and `COc1ccccc1NC(=O)c1ccccc1NC(=O)c1cc(Cl)ccc1NC(=O)c1ccco1`, with 0.0353; and `CCN(CC)CCCN1C(=O)C(O)=C(C(=O)c2sc(C)nc2C)C1c1ccco1` (stereo not given), with -0.418. Then `CCn1c(C)nc2cc(-c3nnc(-c4c(-c5ccccc5)noc4C)o3)ccc21`, with -1.45; and `CSc1cccc(NC(=O)CN(C)S(=O)(=O)c2ccc(C)cc2)c1`, with -0.0574.

Compound `Cc1cc(=O)n(CNC(=O)c2ccccc2)c(=S)[nH]1` displayed a z-score of -0.214. The value for `COc1cc(/C=N/Nc2nn3cnnc3c3ccccc23)cc(OC)c1OC` was -0.0927. The value for `Cc1cc(O)c(/C=N/Nc2ccc(Cl)cc2)c(=O)o1` was 0.289.

In turn, `Cc1cc(NC(=O)/C=C/c2ccccc2)no1` had a z-score of -0.0449. Then `CCC(=O)Nc1c(-c2cccs2)c(=O)c2ccccc2n1C`, with -0.205; and `COc1ccc(/C=C/c2nc(-c3ccccc3O)n[nH]2)cc1OC`, with -0.135.

Compound `Oc1ccccc1-c1nc(N2CCN(Cc3ccccc3)CC2)c2ccccc2n1` returned a z-score of 0.428. The value for `CCN1CCN(C(=O)C(C)N(c2ccc(C)cc2)S(C)(=O)=O)CC1` (stereo not given) was 1.05; that for `Fc1ccc(COc2ccc(Br)cc2CNCc2ccncc2)cc1` was -0.78. The value for `CCOC(=O)c1cccc(Nc2nc(C)cc(C)n2)c1` was 0.076.

The compound `S=c1[nH]nc(-c2ccc3ccccc3n2)n1-c1ccccc1Cl` returned a z-score of 0.0824. Then `CN=C(C)C1=C(O)C(C(=O)OC)C(C)(C)CC1=O` (stereo not given), with 1.07; and `CCc1ccccc1NC(=O)CN1C(=O)C2CCCN2c2ncc(Cl)cc21` (stereo not given), with 0.0582; and `CN(C)c1ccc(P(=O)(Nc2ccc([N+](=O)[O-])cc2)N2CCOCC2)c(NC(=O)c2cccs2)c1` (stereo not given), with -0.185.

The compound `Cc1ccc(Nc2nnc(SCc3ccccc3)s2)cc1` came in with a z-score of -0.106. The value for `Cc1cc(Cl)ccc1N1C(=O)CC(NNC(=O)c2cccnc2)C1=O` (stereo not given) was -0.296; that for `Cc1cc(C)c(OCCCCn2cnc3ccccc3c2=O)c(C)c1` was -0.191. Then `Cn1c(=O)c2c(nc(NCC3CCCO3)n2C)n(C)c1=O` (stereo not given), with 0.315; and `C=CCn1c(-c2ccc(N)cc2)nc2ccccc21`, with -0.275; and `CCOCCCn1c(=O)c(NC(=O)c2ccc(OCC)cc2)c2n(c1=S)CCCCC2`, with -0.297. Then `CCOC(=O)C1CCN(c2ccc(C(N)=O)cc2[N+](=O)[O-])CC1`, with -0.277; and `COc1ccccc1-c1nc(-c2cccc(C)c2)no1`, with -0.469; and `Cc1ccc(C2(C)NC(=O)N(CC(=O)NCc3cccs3)C2=O)cc1` (stereo not given), with -0.0552. Compound `CSc1ccc(C#N)cc1NC(=O)c1ccc(Cl)cc1Cl` yielded a z-score of 0.0336.

The compound `Clc1ccc(-n2ncc3c(NCCN4CCOCC4)ncnc32)cc1` had a z-score of -0.298. Then `O=C1C2CC=CCC2C(=O)N1CC1CCCO1` (stereo not given), with 0.809. Then `Cc1sc(NC(=S)NC(=O)c2cccs2)nc1-c1ccc(CC(C)C)cc1`, with 0.117; and `Cc1cc(NC(=O)CN2C(=O)NC3(CCCCC3)C2=O)no1`, with 0.0457; and `C/C(=N/NC(=O)c1cccs1)c1ccco1`, with 0.507.

For the compound `CS(=O)(=O)c1ccc2nc(NC(=O)C3COc4ccccc4O3)sc2c1` (stereo not given), the z-score was 0.303. The value for `CCOc1ccc(Nc2oc(-c3cccc(Cl)c3)nc2C#N)cc1` was -0.0538. Then `Cc1ccc(Nc2nc(COC(=O)COc3ccc(C=O)cc3)cs2)cc1`, with -0.821; and `CCOc1cc(C(=O)N/N=C/C2CC=CCC2)cc(OCC)c1OCC` (stereo not given), with -0.357. The value for `COc1ccc(C(=O)Nc2nc(-c3ccc(OC)cc3)c(-c3ccc([N+](=O)[O-])cc3)s2)cc1` was -0.987; that for `COc1cc(/C=N/NC(=S)N/N=C/c2cc(OC)c(OC)c(OC)c2)cc(OC)c1OC` was -0.0296.

As for `CSc1cccc(NS(=O)(=O)c2ccc(F)cc2)c1`, the z-score is -0.177. The compound `Cc1cccc(-c2nnc(SCc3ccccc3)o2)c1` yielded a z-score of 0.697. The value for `Cc1cc(N2C(=O)CC(N3CCN(C(c4ccccc4)c4ccccc4)CC3)C2=O)no1` (stereo not given) was -0.103; that for `Cc1ccc(/C=N/Nc2ccnc3cc(Cl)ccc23)c(C)c1` was -0.412. As for `CCN(CC)C(=O)CSc1nc2ccccc2c(=O)n1CCC(=O)NCc1ccc(F)cc1`, the z-score is -0.611. Then `NC(=O)CSc1nnc(Cc2csc(Nc3ccc(F)cc3)n2)n1Cc1ccccc1`, with -0.594; and `Cc1cc(NC(=O)Cn2cnc3c(cnn3C(C)(C)C)c2=O)no1`, with 0.423; and `C=CCSc1nnc(Cc2cc(=O)[nH]c(=O)[nH]2)n1-c1cc(C)ccc1C`, with -0.111. The value for `COC(=O)c1ccc(N2C(=O)CC(NCc3ccccc3)C2=O)cc1` (stereo not given) was 0.444; that for `COCc1cc(/C=N\NC(=O)c2ccc(Cl)cc2)ccc1OC` was -0.113; that for `CCOC(=O)Nc1nc2ccccc2s1` was 0.216. The compound `CC(C)N(Cc1nc(-c2ccccc2)no1)C(=O)C(C)(C)C` had a z-score of -0.0476. Then `COc1ccc(N2CCN(C(=O)c3cn(C)c(=O)c4c3c3ccccc3n4C)CC2)cc1`, with -0.991; and `COc1ccc(/C(C)=C(\C#N)C(=O)OC(C)C)cc1OC`, with -1.07; and `O=C(Cn1ccc(C(F)(F)F)n1)N/N=C/c1ccc2c(c1)OCO2`, with -0.0923. Then `CCOC(=O)c1c(NC(=O)CSc2nnc(CNc3ccc(C)cc3C)o2)sc(C)c1C`, with -0.0907. The compound `CCOc1cc(/C=C2/NC(=O)N(Cc3ccccc3F)C2=O)ccc1O` came in with a z-score of -0.759. The value for `CCOC(=O)CNC(=O)c1ccccc1` was -0.434; that for `Cc1cc(NC(=O)CCC(=O)N(CC(=O)NC2CCCC2)c2ccccc2)no1` was 0.384. Then `CCOCCCNS(=O)(=O)c1ccc(Br)cc1`, with 0.472; and `Cc1cc(CN2CCOCC2)c(O)c(C2(C)CCCCC2)c1`, with -0.149; and `O=c1cc(-c2ccc(F)cc2)oc2ccccc12`, with -0.012. The compound `CC(/C=C/c1ccccc1)=N\NC(N)=S` registered a z-score of -0.00559.

`COc1ccc(C(=O)NCCn2ccc3ccccc32)cc1` registered a z-score of -0.162. The value for `COc1ccccc1N1CCN(c2nc(C)nc3c2oc2ccccc23)CC1` was 0.614. The compound `CCC1=C/C(=C\c2ccc3c(c2)OCO3)C(=O)S1` yielded a z-score of 0.0279. Then `CCOC(=O)N1CCC(NC(=O)CSCc2nc(-c3cccc(OC)c3)oc2C)CC1`, with -0.244; and `O=[N+]([O-])c1ccc(-c2ccc(/C=N/c3c(-c4ccco4)nc4ccccn34)o2)c(Cl)c1`, with -0.142. The compound `CC(=O)NC1=NN(C(C)=O)C(C)(CS(=O)(=O)c2ccc(Cl)cc2)S1` (stereo not given) displayed a z-score of -0.00879. Then `CCNc1nc2c(c(=O)[nH]c(=O)n2C)n1CC(C)C`, with -0.237.

Source of the values: PubChem BioAssay AID488969 (Vanderbilt High Throughput Screening Facility, 2010).
